Results taken from the supplement of paper PMC11383711.
The other results are listed elsewhere or left out. Binding of human antibodies (heavy:light variable regions, tested as scFv in one mRNA-display pool) to influenza hemagglutinin, with or without the stem antibody CR9114 bound first. Score = (mean enrichment − median) / interquartile range of that screen; higher = more enriched, 0 = typical non-binder. Active = above the paper's cut-off per screen: stems 28; unblocked H1 Solomon Islands 5, H1 Michigan 3, H3 5, H5 19, H7 2.85, both B 5; blocked 9, 7, H5 10, H7 10, B Phuket 10, B Lee 11.5. Scores are scaled within each screen and are no affinities; replicates correlate at about 0.6 to 0.9, and antibodies rare in the pool are noisier.

B1: 240-14-IgG-2E03 (protein)
chain 1: QVQLQEWGAGLLKPSETLSLTCAVSGDSFSDYYWSWIRQPPGKGLEWIGEVYHDGSTNYNPSLKSRVTISIDTSKNQFSLKLTSVTAADTAVYFCARGVLGELTAIHFDYWGQGALVTVSS
chain 2: EIVMTQSPATLSVSPGERATLSCRASQSVSSLLVWYQQKPGQTPRLLIYGASTRAPGIPARFSGSGSGTEFTLTISSLQSEDFAVYYCQQWYTFGQGTKVEIK
B2: R95-2G12 (protein)
chain 1: EVQLVESGGDLVQPGRSLRLSCAASGFSFDEYAMHWVRQPPGKGLEWVSGINWDGHSMAYADSVKGRFTISRDNAKNSLYLQMHSLRPEDTAFYYCAKSSYGLVAPNWFDPWGPGTLVTVSS
chain 2: DIQMTQSPSSLSASVGDRVTITCRASQSIISYLNWYQQKPGKAPKLLIYDASILQGGVPSRFSGSGSGTDFTLTISGVQPEDFATYYCQQSYSAPVSFGQGTKLDIK
B3: W85-2D08 (protein)
chain 1: QVQLVQSGAEVKKPGASVKVSCKASGYSFTTFDINWVRQATGQGLEWVGWMNPNSGNTGYAQKFQGRVSMTRNTSKSTAYMELSSLTSEDTAVYFCARGVGFCDTTSCYGSWFDPWGQGTLVTVSS
chain 2: EIVMTQSPATLSVSPGERATLSCWASQNVSSNLAWYQQKPGQAPRLLIYGATTRATGVPARFSGSGSRTEFTLTISSLQFEDFAVYYCQPYSNWRPITFGQGTRLEIK
B4: 039-10-5C05 (protein)
chain 1: QVQLVESGGGLVQPGRSLRLSCAASGFSLSTYPMHWVRQAPGKGLDWVATMSYDGSHKDYADSVKGRFTISTDTSKNTLYLQMNSLRTDDTAVYYCARPRGGGYNYFRADSFDSWGQGTLVTVSS
chain 2: DIQMTQSPSSLSASVGDRVTITCRTSQRVSTYLNWYQQKPGKSPKLLIYLASSLQSGVPSRFSGSGSGTDFSLTISSLQPEDFATYYCQQSYSMPLTFGGGTKVEIK
B5: AG6-3E02 (protein)
chain 1: QLQESGPRLVRPSETLSLTCTVSGGSISSSTYYWGWIRQPPGKGLEWIGSVFYSGTTYKIPSLNSRVTISIDTSKKEFSLTLTSVTAADTAVYYCARHTYNRGSWFDHPWNYFYGMDIWGQGTTVTVSS
chain 2: DIQMTQSPSSLSASVGDRVTITCRASHNINNYLNWYQQKPGKPPKLLIYAASSLRSGVPSRFSGSGSETDFTLTISTLEPEDFVTYYCQQSFSTPFTFGQGTKVEIK
B6: C1-2-E05 (protein)
chain 1: VQLVESGGGLVQPGGSLRLSCAASGFSFSLYSMNWVRQAPGKRLEWISYISSSSGTKLYADSVKGRLTTSRDNAKSSLYLQMTNLRPEDTAVYYCVREEVIVGGIPFDYWGQGALVTVSS
chain 2: EIVMTQSPSTLSVSPGARATLSCRASQSVGSSLAWYQQKPGQPPRLLIFGASTRATGVPARFSGSGYGTEFTLTISSLQSEDSAVYHCHQYHDWPPWTFGQGTKVEIK
B7: W85-1C11 (protein)
chain 1: EVQLVESGGGLVQPGGSLRLSCAASGFILSPYWMHWVRQAPGKGLVWVSRINSDGSNRNYADSVKGRFTISRDNAKNTLYLQMNSLRVEDTAVYYCARQGYYYDSSGYQDWFDPWGQGTLVTVSS
chain 2: SYELTQPPSVSVSPGQTARITCSGDALPKKYAYWYQQKSGQAPVLVIYEDTKRPSGIPQRFSGSSSGTMATLTISGAQVEDEADYYCYSTDSSGNHRVFVGGT
B8: 008-10-5E02 (protein)
chain 1: EVQLVESGGGLVRPGGSLRLSCAASEINVRNVWMSWVRQAPGKGPEWVGRIKREKDGGTIDYAAPVKGRFTISRDASKNMLFLLMESLQTEDTAVYYCTTDFLESLLLGSGPPRETGHFDTWGQGTLVTVSS
chain 2: DIQMTQSPSSLSASVGDRVTITCRASQSISTYLNWYQRKPGKAPKFLIYAASNLQSGVPSRFSGSGSGTDFTLTISNLQPEDFATYYCQQSYSTPSWTFGQGTKVEIK
B9: C1-2E01 (protein)
chain 1: VQLVESGGGGVRPGRSLRLSCAASGFNFEHYGMIWVRQVPGKGLEWVSAITWNGGDTYYVDSVRGRFTISRDNAKRSLFLQMNSLRVEDTAFYYCAREMRDPYDAFDLWGQGTMVTVSS
chain 2: DIQMTQSPSSLSASVGDRVTITCRASHNIGSYLNWYQQKPGKAPQLLIYASSILQTGVPSRFSGSGSGTDYTLTISGLQRDDFATYFCQQSSTNPKTFGQGTRLEIK
B10: C2-3-F04 (protein)
chain 1: VQLVESGGGVVQPGRSLRLSCAASGFSFRDFSMHWVRQAPGMGLEWVTLISYDGTNTFYADSVKGRFTISRDNSKNTLFLQLNSLRTEDTAVYYCARDYRHGLIDFWGQGTLVTVSS
chain 2: DVVMTQSPLSLPVPLGQPASISCRSSDSLVSVDGNTYLNWFQQRPGQSPRRLIYQVSNRDSGVPERFSGSGSDTDFTLKISRVEAEDVGVYYCMQGTYWPPITFGQGTRLEIK
B11: W85-3C05 (protein)
chain 1: EVQLVESGGGLVQPGGSLRLSCAASGFTVSSNYLSWVRQAPGKGLEWVSVIYGGGNTYYADSVKGRFTISRHNSKNTLYLQMNNLRAEDTAVYYCASHVLRFLEEGFDMWGQGTMVTVSS
chain 2: DIQMTQSPSSLSASVGDRVTITCRASQSISSYLNWYQQEPGKVPKLLIYSASSLHSGVPSRFSGSGSGTDFTLTISSLQPEDFATYYCQQTYSTSLTLGGGTKVEIK
B12: 16.ND.92 (protein)
chain 1: EVQLVESGGGLVQPGGSLRLSCEASGFTLSSYWMHWVRQDPGKGLVWVAVINSDGSSTDYADFVKGRFTISRDNAKNTVYLQMNSLRAEDTAVYYCARAPQGTVFGVVIIGADGFDIWGQGTMVTVSS
chain 2: DIQMTHIPVSLSASVGDRVTITCRASQSISSWLAWYQQKPGKAPKLLIYKASTLESGVPSRFSGSGSGTDFTLTINSLQPDDFATYYCQHYNTYSRAWTFGQGTKVEVK
B13: 029-09-3A02 (protein)
chain 1: VQLVQSGAEVKKPGASVKVSCKASGYIFTGYYMEWVRQAPGQGLEWMGWINPNTGVTKYAQKFQGRVTMTRDTSLSTAYMELINLRSDDTAIYYCAKDRAWLVYDDGSDVWGQGTMVTVSS
chain 2: SYELTQPPSVSVSPGQTAIITCSGDILGDTYACWYQQKPGQSPVLVIYHDFKRPSGIPERFSGSNSGKTATLTITGTQAMDEADYFCQTWDGGALFGGGTKLTVL
B14: K77-2E05 (protein)
chain 1: QVQLVQSGAEVKRPGASVKVSCKASGYTFTSHYVTWVRQAPGQGLEWMGPIIPSAGSISYAQKFQGRVVMTRDTSTSTVYMELSSLRSEDTAVYYCARVGVQVERELRYYGMDVWGQGTTVTVSS
chain 2: EIVLTQSPGTLSLSPGERATLSCRASQSVSSSYLAWYQQKPGQAPRLLIYGASSRATGVPDRFSGSGSGTDFILTISRLEPEDFAVYYCQQYGFSGTTFGQGTRLEI
B15: AG13-3F04 (protein)
chain 1: VQLVQSGAEMQKPGASVKVSCKASGFTFTGFYLHWVRQAPGQGLEWMGWINLNSGDTDTAQKFQGRVTMTSDTSISTAYMDLSSLKSDDTAVYYCATWYISGWYDGMDVWGQGTTVTVSS
chain 2: DIVMTQSPLSLPVTPGEAASISCRSSQSLLNTNGYTYLDWFLQKPGQSPQLLIYLGFNRASGVPDRFSGSGSGTYFTLKISRVEAEDVGVYYCMQALQTPRTFGQGTKVEIK
B16: C6-C01 (protein)
chain 1: VQLVESGGGVVQPGKSLRLSCTASGFTFSSYAMHWVRQAPGKGLEWVAVVAYDGSNRYYVDSVKGRFTISRDNSKNTLYLQMNNIRPEDTAVYYCARVASMILVDIKYYFDYWGQGTLVTVSS
chain 2: EIVMTQSPATLSVSPGERATLSCRASQSVRSNLAWYQQKPGQAPRLLIYGASTRATGIPARFSGSGSGTEFTLTISSLQSDDFAVYHCQQYNEWPRTFGQGTKVEIK
B17: antibody 3A03 (protein)
chain 1: VQLVESGGGLVQPGGSLRLSCAASGFSFSSYRMNWVRQAPGKGLQWVSYISQSGGTVYYADSVKGRFTISRDNAKNSLYLQMISLRDEDTAVYFCARDEWADDYGNYYLDYWGQGTLVTVSS
chain 2: EIVLTQSPATLSLSPGERATLSCRASQSVSSFLAWYQKKPGQAPRLLIYDAFNRATGVPARFSGSGSGTDFTLTISSLEPEDFAVYYCQQRSNWPPLTFGGGTKVEIK
B18: 16.p.01 (protein)
chain 1: QVQLVQSGAEVKRPGASVNVSCKTSGYTFTDYYMHWVRQAPGQGLEWMGWINPNNGGTNYAQRFQGRVTMTRDTSLSTVYMELTSLRSDDTAVYYCATYYFESSGYFRLDYWGRGTLVTVSS
chain 2: DIQMTQSPSSLSASVGTRVPITSRASKSIARFLNRNQQKPGRAPKFMIYYASIWERGGPSRFSGGGSGTDFNFTISVLQPEDFATYYCQQSNSAPTTSGQGNKIEIK
B19: K77-1D04 (protein)
chain 1: EVQLVESGGGVVQPGGSLRLSCGASGFTFSDYGMHWVRQAPGKGLEWVTYIRYDGSNEFYADSVKGRFTVSRDNSKNTLYLEMHSLRPEDTAVYFCANSALGYCSGENCPKFDFWGQGTLVTVSS
chain 2: QSALTQPASVSGSPGQSITISCTGTSFDVGGYNYVSWYQQHPGKAPKLIIYDVSERPSGISNRFSASKSGITASLTISGLQAEDEADYYCSSYTSSGTHWLFGGGTKLTVL

Molecular target: H1 HA stem construct (mini-HA #4900)
Assay: mRNA display binding score; higher = more enriched on the antigen
Details: antigen blocked with: nothing
Experimental: (§1)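 A pool of natively paired antibodies, displayed as scFv on mRNA, was selected once on antigen-coated beads and sequenced before and after; two replicates.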

mRNA display binding score, inactive:
B1 0.687
B2 -1.18
B3 -0.977
B4 -0.808
B5 -0.195
B6 0.915
B7 0.0292
B8 0.826
B9 1.55
B10 -0.513
B11 -0.798
B13 0.54
B14 -0.298
B15 0.431
B16 0.817
B17 0.101
B18 0.282
B19 -1.18

mRNA display binding score, active:
B12 57.8

Molecular target: H3 HA stem construct (H3ssF)
Assay: as above
Details: antigen blocked with: nothing
Experimental: as §1

mRNA display binding score, inactive:
B1 0.0201
B2 -0.818
B3 -0.908
B4 -0.711
B5 0.468
B6 -0.0318
B7 0.268
B8 7.99
B9 -0.431
B10 -0.434
B11 -0.016
B12 0.196
B13 -0.127
B14 -0.111
B15 -0.00154
B16 -0.215
B17 -0.312
B18 0.196
B19 0.612
